# Source: PubChem BioAssay AID686979 (National Center for Advancing Translational Sciences (NCATS), 2013)
# In all, about 420,000 compounds went through this assay and about 50,000 (12%) were called active. Inconclusive means that the source gave no clear call. Such entries were picked first, then a sample of the others. Calls come from the whole dose curve; as a rule, active = well fitted inhibition curve with a large enough effect; inconclusive = small, poorly fitted or top-dose-only effect; inactive = flat fitted curve, though single readings scatter. No potency is given beside an inconclusive call; the fits are too rough. Where a structure was tested more than once in an assay, its records may differ in their call.
# Assay: qHTS for Inhibitors of human tyrosyl-DNA phosphodiesterase 1 (TDP1): qHTS in cells in presence of CPT; note: nearly all actives have a fitted effect of over 55% in size
# Conditions: chicken DT40 Tdp1-/-;hTDP1 cells + 20 nM CPT, ATP luminescence, 48 h; activity change, negative = growth inhibition: at 46.2 µM (top of the series)
# Summary of the method: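 Chicken DT40 Tdp1-/- cells complemented with human TDP1, 400 cells/well, exposed to compounds plus 20 nM camptothecin for at least 48 h at 37 C; viability read as ATP content by CellTiter-Glo luminescence.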
# % is set by controls: 0 for no effect and ±100 for the full control effect; potency is the fitted concentration of half-maximal effect; tags give direction and shape of the fitted curve.
SMILES,Potency,"activity change, negative = growth inhibition"
COc1cccc(-c2nc(NC3CC3)c3ccccc3n2)c1,active: 16.4 µM,–
Cc1cccn2c(=O)c(C=O)c(N3CCCCC3)nc12,inactive,–
COc1ccccc1CNC(=O)CSc1ccc(C)cc1,"inconclusive [inhibitor, partial curve, poor fit]",–
CC(=NNC(=O)c1ccncc1)c1ccc2ccccc2c1O,active: 4.11 µM,–
Cc1cnc(CN2CCc3c([nH]c4ccccc34)C2CC(C)C)[nH]1 (stereo not given),"inconclusive [inhibitor, single point]",–
O=C(COc1ccc(F)cc1)NCC1(N2CCOCC2)CCCCC1,"inconclusive [inhibitor, partial curve]",–
O=C(CCN1c2ccccc2Sc2ccccc21)Nc1ccccc1,–,inconclusive: -30.7% [inhibitor]
C=CCn1c(O)c(N=Nc2ccccc2O)c2ccccc21,"inconclusive [inhibitor, single point]",–
Cc1cccc(OCC(=O)Nc2nccs2)c1C,"inconclusive [inhibitor, single point]",–
CCN(CC)S(=O)(=O)c1cccc(-c2nnc(SC(C)C#N)n2Cc2ccccc2)c1 (stereo not given),active: 14.6 µM,–
COc1ccccc1N1CCN(C(=O)CCc2ccc(S(=O)(=O)NC(C)C)cc2)CC1,"inconclusive [inhibitor, single point]",–
Cc1ccc(-c2nn(-c3ccc(F)cc3)cc2C(=O)NCCCN2CCCC2=O)cc1,active: 0.206 µM,–
COc1ccc(/C=C2\CCc3ccccc3C2=O)cc1Cn1nc(C)cc1C,"inconclusive [inhibitor, single point]",–
O=C(Nc1cccc(S(=O)(=O)N2CCCCC2)c1)c1ccc(OCC2CCCO2)cc1 (stereo not given),active: 20.6 µM,–
O=C(NCc1ccco1)c1ccc(-c2ccc(F)c(F)c2)c2ccoc12,"inconclusive [inhibitor, single point]",–
COc1ccccc1CNc1ccnc(-c2ccc(N(C)C)cc2)n1,"inconclusive [inhibitor, single point]",–
COc1cccc(-c2cc(C(F)(F)F)n3nc(C(=O)N4CCCCC4c4cccnc4)cc3n2)c1 (stereo not given),active: 16.4 µM,–
COc1ccc(-c2csc3ncnc(Nc4cccc(F)c4)c23)cc1,"inconclusive [inhibitor, single point]",–
CC1=C(C(=O)Nc2ccc(C)cc2C)C(c2cccs2)n2nc(SCc3ccc(Cl)cc3)nc2N1 (stereo not given),active: 10.3 µM,–
Cc1nc2ccc(C(=O)NC(C)(C)C)cn2c1N(C)C(=O)CCc1ccccc1,inactive,–
O=C(N/N=C/c1c(Cl)cccc1Cl)c1n[nH]c2c1CCCC2,active: 23.1 µM,–
Cc1cc(C(=O)N2CCN(c3ccccc3O)CC2)c(C)o1,inactive,–
CC(CCc1ccccc1)NC(=O)c1ccc(F)cc1 (stereo not given),inactive,–
Nc1oc2ccc(F)cc2c(=O)c1C=O,inactive,–
C(=N\Nc1nc(N2CCOCC2)nc(N2CCOCC2)n1)/c1ccncc1,inactive,–

SMILES,Potency,"activity change, negative = growth inhibition"
N/C(=N\OC(=O)/C=C/c1ccc(Br)cc1)c1ccccn1,"inconclusive [inhibitor, single point]",–
Cc1ccc(S(=O)(=O)N2CCOCC2)cc1N/N=C(\C#N)c1nc2ccccc2[nH]1,"inconclusive [inhibitor, single point]",–
COc1cc2cc(CN(C(=O)Nc3ccccc3)C3CCCC3)c(=O)[nH]c2cc1OC,inactive,–
Cc1nc2nc(NC(=O)C(C)C)[nH]n2c(=O)c1Cc1ccccc1,inactive,–
COc1ccc(C2=NOC(Cn3c(Cc4ccc(Cl)cc4)nc4c3c(=O)n(C)c(=O)n4C)C2)cc1 (stereo not given),active: 25.9 µM,–
Cc1ccc(CSc2nc3cccnc3n2Cc2ccc(C(=O)NCc3cccs3)cc2)cc1,inactive,–
Cc1c(C(=O)NCc2ccccc2C(F)(F)F)sc(=O)n1Cc1cccc(C(F)(F)F)c1,"inconclusive [inhibitor, single point]",–
CC(CNC(=O)Cn1c(-c2cccs2)cc2cc(Cl)ccc21)c1ccccc1 (stereo not given),"inconclusive [inhibitor, single point]",–
COc1ccc(N(C(=O)CCl)C(C(=O)NCCc2ccccc2)c2cccs2)cc1 (stereo not given),active: 4.61 µM,–
Cc1cc(C)c(NC(=S)N2CCCC2C(=O)O)c(C)c1 (stereo not given),inactive,–
COc1cc(Cl)c(C)cc1NC(=O)CCn1cnc2onc(-c3ccc(F)cc3)c2c1=O,active: 18.4 µM,–
O=C(NCc1cc(C(F)(F)F)ccc1Cl)c1cccc2c1C(=O)c1ccc(N3CCC(Cc4ccccc4)CC3)cc1S2(=O)=O,"inconclusive [inhibitor, full curve, poor fit]",–
CC(C)n1ncc2c(C(=O)N3CCN(c4ccc(F)cc4)CC3)cc(-c3ccccc3)nc21,"inconclusive [inhibitor, single point]",–
CCOc1ccccc1N(CC(=O)NC(C)(C)C)C(=O)CCC(=O)Nc1nccs1,inactive,–
Cc1ccc(-n2ncc3c(=O)[nH]c(SCC(=O)N4CCCCC4)nc32)cc1,"inconclusive [inhibitor, single point]",–
COCC(C)NS(=O)(=O)c1ccc(N2CCCCS2(=O)=O)cc1 (stereo not given),inactive,–
CCCCC(=O)N(C)c1c(CC)nc2c(OCc3ccc(C(F)(F)F)cc3)cccn12,"inconclusive [inhibitor, single point]",–
CCOc1cc(NC(=O)c2cccs2)c(OCC)cc1NC(=O)CCC(=O)NCC1CCCO1 (stereo not given),inactive,–
Cc1cc(N2CCN(C)CC2)nc2ccc(NC(=O)CCC3CCCC3)cc12,"inconclusive [inhibitor, partial curve, poor fit]",–
CSc1sc(C#N)c2c1/C(=N\O)CCC2,inactive,–
Cc1cc(Br)c(OCc2ccc(C(=O)N/N=C3\CC(=O)CC(C)(C)C3)cc2)c(Br)c1,"inconclusive [inhibitor, single point]",–
Cc1noc(C)c1CSc1nnc2scc(-c3ccccc3)n12,inactive,–
Cc1ccccc1NC(=O)C1CCCN1/C=C/C(=O)C(F)(F)F (stereo not given),inactive,–
CC(C)(Oc1ccc(Cl)cc1)C(=O)Nc1ccncc1,"inconclusive [inhibitor, partial curve, poor fit]",–
CCC(CC)COC(=O)C1=C(C)NC(=O)NC1c1cc(OC)ccc1OC (stereo not given),inactive,–

SMILES,Potency,"activity change, negative = growth inhibition"
COc1ccc(CC(=O)Nc2nc(C)cs2)cc1S(=O)(=O)N1CCOCC1,inactive,–
O=C(NN=C1CCCC1)c1sc2ccccc2c1Cl,inactive,–
Cn1c(=O)c2c(nc(N3CCN(C(=O)c4ccco4)CC3)n2CCSc2ncccn2)n(C)c1=O,–,inconclusive: -34.9% [inhibitor]
CCN1C(C(=O)c2ccccc2)=C(NC(=O)c2ccc(Cl)cc2)c2ccccc2S1(=O)=O,–,inconclusive: -30.8% [inhibitor]
COc1cccc(CN2CCC(Oc3ccc(C(=O)N4CCCCC4)cc3)CC2)c1O,inactive,–
CCOC(=O)c1ccc(NC(=O)c2sc3nc4n(c(=O)c3c2C)CCC4)cc1,active: 16.4 µM,–
O=[N+]([O-])c1cc(-c2csc(NCCc3nc4cc(Cl)c(Cl)cc4n3CCCO)n2)ccc1Cl,active: 16.4 µM,–
O=C(Nc1ccon1)Nc1cccc(Cl)c1Cl,inactive,–
N#Cc1cnn2c(-c3ccc(Cl)cc3Cl)ccnc12,inactive,–
CN(C)c1nc2c(c(=O)[nH]c(=O)n2C)n1Cc1ccccc1Br,"inconclusive [inhibitor, single point]",–
Cc1ccc(Nc2nc(CSc3nnc(-c4ccccc4)n3C)cs2)cc1,active: 20.6 µM,–
CC(C)(C)OC(=O)N(CCc1ccccc1)Cc1cccc(OCc2cccc(NC(=O)C3CC3)c2)c1,"inconclusive [inhibitor, single point]",–
O=C(C1=C[C@@H](C2CC2)C[C@@H](OCc2ccc(CO)cc2)O1)N1CCN(Cc2ccccc2)CC1,"inconclusive [inhibitor, single point]",–
C/[N+]([O-])=C\c1ccc([N+](=O)[O-])o1,active: 25.9 µM,–
COCCN(C(=O)CCc1ccccc1OC)c1nnc(-c2cccnc2)s1,"inconclusive [inhibitor, single point]",–
NC(=O)CN1C(=O)/C(=c2\sc3nc(=O)c(Cc4ccccc4)nn3c2=O)c2ccccc21,"inconclusive [inhibitor, partial curve]",–
N=c1c2c3c(sc2ncn1CCN1CCOCC1)CCCC3,"inconclusive [inhibitor, partial curve]",–
c1ccc(Oc2c3ccccc3nc3ccccc23)cc1,"inconclusive [inhibitor, single point]",–
CSc1ccc(C(=O)C2CCCN(S(=O)(=O)c3c(C)noc3C)C2)cc1 (stereo not given),"inconclusive [inhibitor, single point]",–
CCN1C(=O)[C@H]2[C@@H](c3ccc(-c4ccc(C(C)=O)cc4)c(OC)c3)N[C@@](Cc3ccccc3)(C(=O)OC)[C@H]2C1=O,"inconclusive [inhibitor, single point]",–
COc1ccc(N(CC(=O)NCCSC2CCCCC2)S(=O)(=O)c2ccccc2)cc1OC,"inconclusive [inhibitor, single point]",–
Cc1ccnn1-c1ccc(C(=O)NCc2ccccc2CN2CCOCC2)cc1,active: 20.6 µM,–
N=C1C(c2nc3ccccc3[nH]2)=C(O)CN1c1ccc(CC(=O)O)cc1,inactive,–
O=C(NC(=O)c1ccccc1)Nc1ccc(Cl)cn1,inactive,–
O=C(Nc1cc(S(=O)(=O)N2CCOCC2)ccc1N1CCCC1)c1ccc(F)cc1,active: 13 µM,–
